This note sets out measurements from paper PMC10530723, “The Conserved Chromatin Remodeler SMARCAD1 Interacts with TFIIIC and Architectural Proteins in Human and Mouse” (Genes, 2023).

These are yes or no findings as the source states them, for the method shown. Binding seen in cells or lysates may run through a third protein. Some entries that bind do so weakly or less than the wild type.

Assay [1] concerns the target T1, TFIIIC90 (endogenous, mouse ESCs) (mouse (endogenous in 46C ESCs)) (UniProt Q8BMQ2).
T1 sequence: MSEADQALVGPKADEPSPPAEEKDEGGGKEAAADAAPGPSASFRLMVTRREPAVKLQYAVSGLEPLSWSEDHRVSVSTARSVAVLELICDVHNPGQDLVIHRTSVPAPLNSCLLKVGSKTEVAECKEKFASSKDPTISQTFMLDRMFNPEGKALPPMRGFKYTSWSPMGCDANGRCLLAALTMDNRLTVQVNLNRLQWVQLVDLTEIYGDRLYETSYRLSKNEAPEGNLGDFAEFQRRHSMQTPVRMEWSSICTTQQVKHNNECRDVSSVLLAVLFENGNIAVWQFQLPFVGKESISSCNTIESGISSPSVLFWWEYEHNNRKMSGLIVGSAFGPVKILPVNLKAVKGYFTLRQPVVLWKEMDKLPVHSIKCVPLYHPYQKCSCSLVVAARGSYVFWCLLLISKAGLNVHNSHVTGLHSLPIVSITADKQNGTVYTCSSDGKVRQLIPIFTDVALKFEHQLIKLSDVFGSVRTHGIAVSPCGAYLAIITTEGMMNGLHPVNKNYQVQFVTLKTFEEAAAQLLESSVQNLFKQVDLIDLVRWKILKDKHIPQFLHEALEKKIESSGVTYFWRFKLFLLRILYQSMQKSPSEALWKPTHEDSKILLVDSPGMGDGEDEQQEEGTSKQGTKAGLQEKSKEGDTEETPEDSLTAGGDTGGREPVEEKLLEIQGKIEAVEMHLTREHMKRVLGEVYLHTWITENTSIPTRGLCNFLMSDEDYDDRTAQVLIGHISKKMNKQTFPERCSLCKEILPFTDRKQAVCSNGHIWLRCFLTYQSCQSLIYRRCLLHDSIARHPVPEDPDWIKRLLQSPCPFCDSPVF
Put plainly: co-IP; endogenous proteins from 46C mouse ESC nuclear extract (antibodies to SMARCAD1, TFIIIC63 or TFIIIC90); ethidium bromide and benzonase present; Western blot.

For assay [2], the target named is T2, TFIIIC63 (endogenous, mouse ESCs) (mouse (endogenous in 46C ESCs)) (UniProt Q8R2T8).
T2 sequence: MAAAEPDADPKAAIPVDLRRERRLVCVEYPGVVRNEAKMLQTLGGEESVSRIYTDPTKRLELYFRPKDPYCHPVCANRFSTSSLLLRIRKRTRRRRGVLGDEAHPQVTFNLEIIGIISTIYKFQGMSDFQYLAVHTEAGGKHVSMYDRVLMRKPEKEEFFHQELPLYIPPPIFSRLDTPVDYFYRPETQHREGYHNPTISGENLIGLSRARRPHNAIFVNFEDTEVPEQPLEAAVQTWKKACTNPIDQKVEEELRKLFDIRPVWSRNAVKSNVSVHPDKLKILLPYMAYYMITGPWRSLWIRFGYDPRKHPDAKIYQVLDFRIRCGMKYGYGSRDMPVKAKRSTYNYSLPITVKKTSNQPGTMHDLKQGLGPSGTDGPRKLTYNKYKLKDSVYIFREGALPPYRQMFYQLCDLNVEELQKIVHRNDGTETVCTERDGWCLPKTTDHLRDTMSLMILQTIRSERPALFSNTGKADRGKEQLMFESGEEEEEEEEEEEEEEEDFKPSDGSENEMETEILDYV
Described as above.

The target in assay [3] is T3, TFIIIC90 (endogenous, HeLa) (human (endogenous in HeLa)) (UniProt Q9UKN8).
T3 sequence: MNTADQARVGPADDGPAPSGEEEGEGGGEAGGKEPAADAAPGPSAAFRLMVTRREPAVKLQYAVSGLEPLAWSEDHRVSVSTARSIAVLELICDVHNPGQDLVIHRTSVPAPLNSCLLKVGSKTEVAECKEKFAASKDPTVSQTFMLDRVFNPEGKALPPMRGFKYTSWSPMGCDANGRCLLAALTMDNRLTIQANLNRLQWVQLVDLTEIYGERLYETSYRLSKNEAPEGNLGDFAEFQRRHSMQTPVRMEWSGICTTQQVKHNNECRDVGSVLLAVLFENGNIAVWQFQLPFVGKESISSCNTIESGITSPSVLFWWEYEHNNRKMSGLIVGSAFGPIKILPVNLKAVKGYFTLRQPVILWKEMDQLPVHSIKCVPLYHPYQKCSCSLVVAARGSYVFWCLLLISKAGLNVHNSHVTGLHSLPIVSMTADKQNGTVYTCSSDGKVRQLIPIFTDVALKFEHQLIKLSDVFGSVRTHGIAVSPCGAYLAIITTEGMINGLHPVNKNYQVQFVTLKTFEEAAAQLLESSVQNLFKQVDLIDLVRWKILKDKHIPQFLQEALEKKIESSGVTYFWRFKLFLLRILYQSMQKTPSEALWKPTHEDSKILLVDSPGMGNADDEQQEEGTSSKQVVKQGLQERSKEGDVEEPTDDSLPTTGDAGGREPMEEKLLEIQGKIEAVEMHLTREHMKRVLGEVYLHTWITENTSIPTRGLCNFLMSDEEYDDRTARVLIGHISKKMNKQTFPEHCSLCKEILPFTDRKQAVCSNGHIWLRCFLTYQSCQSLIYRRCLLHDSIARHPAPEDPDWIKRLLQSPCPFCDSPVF
As to the kind of experiment: co-IP; endogenous proteins from HeLa nuclear extract (150 ug protein, 3 ug antibody to SMARCAD1, TFIIIC63 or TFIIIC90, Protein G Dynabeads); benzonase and ethidium bromide present throughout; washes in 20 mM HEPES pH 7.6, 100 mM KCl, 0.05% Triton X-100, last wash with additional 50 mM NaCl; Western blot.

Assay [4] concerns the target T4, TFIIIC63 (endogenous, HeLa) (human (endogenous in HeLa)) (UniProt Q9Y5Q8).
T4 sequence: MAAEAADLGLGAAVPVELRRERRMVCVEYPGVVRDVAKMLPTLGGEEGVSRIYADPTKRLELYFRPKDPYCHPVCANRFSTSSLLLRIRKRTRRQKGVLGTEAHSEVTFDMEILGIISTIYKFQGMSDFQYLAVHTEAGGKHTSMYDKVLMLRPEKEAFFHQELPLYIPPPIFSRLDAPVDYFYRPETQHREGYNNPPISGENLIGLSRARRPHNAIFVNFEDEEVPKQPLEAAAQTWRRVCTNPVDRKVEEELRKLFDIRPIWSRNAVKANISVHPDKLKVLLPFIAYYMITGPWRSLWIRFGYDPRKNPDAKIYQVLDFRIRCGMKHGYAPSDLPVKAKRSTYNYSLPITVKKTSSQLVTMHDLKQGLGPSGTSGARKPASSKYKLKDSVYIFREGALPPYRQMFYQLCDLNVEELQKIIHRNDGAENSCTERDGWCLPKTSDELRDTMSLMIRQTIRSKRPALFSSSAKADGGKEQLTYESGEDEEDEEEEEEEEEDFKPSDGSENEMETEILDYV
Described as above.

B1: SMARCAD1 (endogenous, mouse ESCs) (protein, UniProt Q04692 1-1021)
chain: MNLFNLDRFRFEKRSKIEEAPEAAPQPSQARPSSPISLSAEEENAEGEGSRANTPDSDVTEKTEDSSVPEPPDNERKASLSCFQNQRAIQEYIDLSSDTEDVSPNCSSTVQEKKFSKDTVIIVSEPSEDEESHDLPSVTRRNDSSELEDLSELEDLKDAKLQTLKELFPQRSDSDLLKLIESTSTMDGAIAAALLMFGDAGGGPRKRKLSSSSEEDDVNDDQSVKQPRGDRGEESNESAEASSNWEKQESIVLKLQKEFPNFDKQELREVLKEHEWMYTEALESLKVFAEDQDVQCASQSEVTNGKEVARNQNYSKNATKIKMKQKISVKPQNGFNKKRKKNVFNPKKAVEDSEYDSGSDAGSSLDEDYSSCEEVMEDGYKGKILHFLQVSSIAELTLIPKCSQKKAQKITELRPFNNWEALFTKMSKINGLSEDLIWNCKTVIQERDVVIRLMNKCEDISNKLTKQVTMLTGNGGGWNREQPSLLNQSLSLKPYQKVGLNWLALVHKHGLNGILADEMGLGKTIQAIAFLAYLFQEGNKGPHLIVVPASTIDNWLREVNLWCPSLNVLCYYGSQEERKQIRFNIHNKYEDYNVIVTTYNCAISSSDDRSLFRRLKLNYAIFDEGHMLKNMGSIRYQHLMTINARNRLLLTGTPVQNNLLELMSLLNFVMPHMFSSSTSEIRRMFSSKTKPADEQSIYEKERIAHAKQIIKPFILRRVKEEVLKLLPPKKDRIELCAMSEKQEQLYSGLFNRLKKSINNLEKNTEMCNVMMQLRKMANHPLLHRQYYTPEKLKEMSQLMLKEPTHCEANPDLIFEDMEVMTDFELHVLCKQYQHINSYQLDMDLILDSGKFRALGCILSELKQKGDRVVLFSQFTMMLDILEVLLKHHQHRYLRLDGKTQISERIHLIDEFNTDMDIFVFLLSTKAGGLGINLTSANVVILHDIDCNPYNDKQAEDRCHRVGQTKEVLVIKLISQGTIEESMLKINQQKLKLEQDMTTVDEADEGSMPADIATLLKTSMGL
Take B1: the binding entry in assay [1] and in assay [2] was “binds” in each case.

B2: SMARCAD1 (endogenous, HeLa) (protein, UniProt Q9H4L7 1-1026)
chain: MNLFNLDRFRFEKRNKIEEAPEATPQPSQPGPSSPISLSAEEENAEGEVSRANTPDSDITEKTEDSSVPETPDNERKASISYFKNQRGIQYIDLSSDSEDVVSPNCSNTVQEKTFNKDTVIIVSEPSEDEESQGLPTMARRNDDISELEDLSELEDLKDAKLQTLKELFPQRSDNDLLKLIESTSTMDGAIAAALLMFGDAGGGPRKRKLSSSSEPYEEDEFNDDQSIKKTRLDHGEESNESAESSSNWEKQESIVLKLQKEFPNFDKQELREVLKEHEWMYTEALESLKVFAEDQDMQYVSQSEVPNGKEVSSRSQNYPKNATKTKLKQKFSMKAQNGFNKKRKKNVFNPKRVVEDSEYDSGSDVGSSLDEDYSSGEEVMEDGYKGKILHFLQDASIGELTLIPQCSQKKAQKITELRPFNSWEALFTKMSKTNGLSEDLIWHCKTLIQERDVVIRLMNKCEDISNKLTKQVTMLTGNGGGWNIEQPSILNQSLSLKPYQKVGLNWLALVHKHGLNGILADEMGLGKTIQAIAFLAYLYQEGNNGPHLIVVPASTIDNWLREVNLWCPTLKVLCYYGSQEERKQIRFNIHSRYEDYNVIVTTYNCAISSSDDRSLFRRLKLNYAIFDEGHMLKNMGSIRYQHLMTINANNRLLLTGTPVQNNLLELMSLLNFVMPHMFSSSTSEIRRMFSSKTKSADEQSIYEKERIAHAKQIIKPFILRRVKEEVLKQLPPKKDRIELCAMSEKQEQLYLGLFNRLKKSINNLEKNTEMCNVMMQLRKMANHPLLHRQYYTAEKLKEMSQLMLKEPTHCEANPDLIFEDMEVMTDFELHVLCKQYRHINNFQLDMDLILDSGKFRVLGCILSELKQKGDRVVLFSQFTMMLDILEVLLKHHQHRYLRLDGKTQISERIHLIDEFNTDMDIFVFLLSTKAGGLGINLTSANVVILHDIDCNPYNDKQAEDRCHRVGQTKEVLVIKLISQGTIEESMLKINQQKLKLEQDMTTVDEGDEGSMPADIATLLKTSMGL
With B2, the binding entry in assay [3] and in assay [4] was “binds” throughout.
